Measurements: PubChem BioAssay AID624417 (National Center for Advancing Translational Sciences (NCATS), 2012)
In all, about 410,000 compounds went through this assay and about 6,400 (1.6%) were called active. The inconclusive results got no clear call from the source; some entries with a clear call stand among them for comparison. Calls follow the shape of the dose curve; as a rule, active = well fitted inhibition curve with a large enough effect; inconclusive = small, poorly fitted or top-dose-only effect; inactive = no such curve, though single readings can be large or run the other way. No potency is given beside an inconclusive call; the fits are too rough.

molecular target: Glucagon-like peptide 1 receptor (Homo sapiens) (UniProt P43220); experiment: qHTS of GLP-1 Receptor Inverse Agonists (Inhibition Mode); conditions: HEK293 GLP-1R CRE-luciferase, luminescence, 24 h, GLP-1R form is constitutively active; activity change, negative = inhibition: at 38.3 µM (top of the series) unless noted; also: nearly all actives have a fitted effect of over 55% in size
Sequence of UniProt P43220 (P43220 whole entry, looked up): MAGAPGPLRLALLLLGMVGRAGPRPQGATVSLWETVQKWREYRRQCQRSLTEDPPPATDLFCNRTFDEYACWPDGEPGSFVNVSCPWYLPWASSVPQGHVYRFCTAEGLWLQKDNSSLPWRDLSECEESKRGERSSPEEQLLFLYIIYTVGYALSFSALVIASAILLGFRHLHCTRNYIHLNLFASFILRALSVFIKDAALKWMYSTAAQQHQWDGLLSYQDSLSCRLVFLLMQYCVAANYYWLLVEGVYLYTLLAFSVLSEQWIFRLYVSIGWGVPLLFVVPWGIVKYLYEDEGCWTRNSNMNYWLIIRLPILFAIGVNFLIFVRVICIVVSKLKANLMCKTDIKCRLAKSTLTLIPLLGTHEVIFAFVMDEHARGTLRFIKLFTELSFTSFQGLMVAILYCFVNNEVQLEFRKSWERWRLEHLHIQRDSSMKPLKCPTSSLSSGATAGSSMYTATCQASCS
Outline: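 Inverse agonism was detected as reduced cAMP-driven luciferase luminescence after 24 h compound treatment. The cells were HEK293 clones expressing constitutively active human GLP-1R with the reporter. Reporter-only and GPR119 cell lines served as counterscreen controls.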
% is scaled to controls: 0 for no effect and ±100 for the full control effect; potency is read from the fitted curve at half-maximal effect; tags tell the direction and shape of the fitted curve.

With `Cc1cc2nc(C(C)(C)C)c(Cc3ccccc3)n2c(C)c1Br` as the compound, how does the Potency read?
Its Potency is inconclusive [inhibitor, partial curve, poor fit].

`Cc1ccccc1C(=O)OCn1nnc2ccccc2c1=O` was tested. Which Potency did it give?
Its Potency is inconclusive [inhibitor, single point].

How did the Potency turn out when `COc1ccc(C(=O)NCCSc2c(C)[nH]c3ccccc23)cc1` was run?
Its Potency is inconclusive [inhibitor, single point].

With `CN(C)c1ccc(CC(=O)N2CCCCC2c2cc(C(=O)Nc3ccccc3)no2)cc1` (stereo unspecified) as the compound, how does the Potency read?
Its Potency is inconclusive [inhibitor, full curve].

`Cc1ccsc1/C=N/Nc1nc2ccccc2[nH]1` was tested. Which Potency did it give?
Its Potency is inconclusive [inhibitor, partial curve, poor fit].

`COc1ccc(C(c2nnnn2CCc2ccccc2)N2CCN(C)CC2)cc1OC` (stereo unspecified) was tested. Which “activity change, negative = inhibition” value did it give?
Its value is inactive: 0%.

With `C(=N\Nc1nc(N2CCCC2)nc(N2CCCC2)n1)/c1ccccc1OCc1ccccc1` as the compound, how does the Potency read?
Its Potency is inconclusive [inhibitor, single point].

Which Potency does the source give for `CCCCOc1ccc(CN2CCC(O)CC2)cc1` here?
Its Potency is inconclusive [inhibitor, partial curve, poor fit].

`Cc1ccc(CNCC(O)(c2ccccc2)c2ccccc2)cc1` was tested. Which Potency did it give?
The Potency was inconclusive [inhibitor, partial curve, poor fit].

For `O=C(NCCCn1ccnc1)c1nn2c(C(F)(F)F)cc(-c3ccccc3)nc2c1Cl`, which Potency is on record?
The Potency was inconclusive [inhibitor, single point].

How did the Potency turn out when `CCCCN(CC)CCCNC(=S)Nc1ccc2nc(N3CCN(C)CC3)cc(C)c2c1` was run?
The Potency was inconclusive [inhibitor, partial curve, poor fit].

With `CC(C)(C)C(O)C(Cc1ccccc1Cl)n1cncn1` (stereo unspecified) as the compound, how does the “activity change, negative = inhibition” value read?
Its value is inactive: -9.11%.

Which Potency does the source give for `Cc1ccc(NC(=O)c2cccc(OCc3c(C)noc3C)c2)c(C)c1` here?
Its Potency is inconclusive [inhibitor, single point].

Which Potency does the source give for `COc1ccc(NC(=O)CC2C(=O)N(c3ccc(Cl)cc3)C(=S)N2CCc2ccncc2)cc1` (stereo unspecified) here?
The Potency was inconclusive [inhibitor, single point].

With `CCOc1ccc(Cn2c(CNS(=O)(=O)c3ccc([N+](=O)[O-])cc3)nc3cccnc32)cc1` as the compound, how does the “activity change, negative = inhibition” value read?
The value was inactive: 0.86%.

With `Cc1[nH]c2ccccc2c1/C=C/c1nc2ccccc2c(=O)n1CCO` as the compound, how does the Potency read?
The Potency was inconclusive [inhibitor, partial curve, poor fit].

`CCOc1ccc(NS(=O)(=O)c2cc(NC(=O)CCS(=O)(=O)c3ccc(C)cc3)ccc2OC)cc1` was tested. Which Potency did it give?
The Potency was inconclusive [inhibitor, partial curve].

For `CC1CCN(C(C)C(=O)Nc2ccc(S(=O)(=O)N3CCCC3)cc2)CC1` (stereo unspecified), which Potency is on record?
Its Potency is inconclusive [inhibitor, full curve, poor fit].

Which Potency does the source give for `CC(=O)Nc1cc(-c2ccc(C(=O)NC3CC3)cc2)cn2c(-c3cccc(C(F)(F)F)c3)cnc12` here?
The Potency was inconclusive [inhibitor, single point].

How did the Potency turn out when `Cc1[nH]c2ccccc2c(=O)c1C(=O)/C=C/c1ccccc1` was run?
Its Potency is inconclusive [inhibitor, full curve, poor fit].

How did the Potency turn out when `O=c1c2cc3c(nc2ncn1Cc1ccccc1F)CCCC3` was run?
The Potency was inconclusive [inhibitor, full curve].

How did the Potency turn out when `Cc1ccc(C(O)(C(=O)NNS(=O)(=O)c2ccc(C)cc2)c2ccc(C)cc2)cc1` was run?
Its Potency is inconclusive [inhibitor, single point].

`CCOC(=O)c1cnc2c(ccc3ccccc32)c1Nc1ccc(OC)c(OC)c1` was tested. Which Potency did it give?
Its Potency is inconclusive [inhibitor, full curve].

With `O=C(NCC1CCCO1)C(c1ccc(F)cc1)N(CCCN1CCOCC1)C(=O)c1ccc(-c2ccccc2)[nH]1` (stereo unspecified) as the compound, how does the Potency read?
The Potency was inconclusive [inhibitor, single point].

For `COc1ccc2oc(C(=O)OCC(=O)N3CCCC(C)C3)c(C)c2c1` (stereo unspecified), which Potency is on record?
Its Potency is inconclusive [inhibitor, partial curve].

`Oc1ccc(-c2cnc3c(Nc4cccc(OC(F)(F)C(F)F)c4)nccn23)cc1` was tested. Which Potency did it give?
Its Potency is inconclusive [inhibitor, full curve, poor fit].

With `O=C(CN1CCCCC1)Nc1ccc(F)c(Cl)c1` as the compound, how does the Potency read?
Its Potency is inconclusive [inhibitor, single point].

For `O=C(CS(=O)CC(=O)Nc1ccccc1-c1ccccc1)Nc1ccc(F)cc1` (stereo unspecified), which Potency is on record?
The Potency was inconclusive [inhibitor, single point].

`Cc1cccc(-n2ncc3c2CCCC3NC(=O)C2(C(N)=O)CC2)c1C` (stereo unspecified) was tested. Which Potency did it give?
The Potency was inconclusive [inhibitor, full curve].

How did the Potency turn out when `COc1ccc(CN(CCc2ccccc2)Cc2ccccc2)cc1OC` was run?
Its Potency is inconclusive [inhibitor, single point].

For `Cc1cccc(CN2CCCC(C(=O)Nc3ccc(-c4cscn4)cc3)C2)c1` (stereo unspecified), which Potency is on record?
The Potency was inconclusive [inhibitor, partial curve, poor fit].

With `CC(C)=CCc1c(O)cc(O)c2c(=O)c(O[C@@H]3O[C@@H](C)[C@H](O)[C@@H](O)[C@H]3O)c(-c3ccc(O)cc3)oc12` as the compound, how does the Potency read?
Its Potency is inconclusive [inhibitor, partial curve, poor fit].

For `CCOc1ccc(NC(=O)CN2CCN(CC(=O)Nc3ccc4c(c3)OCO4)CC2)cc1`, which “activity change, negative = inhibition” value is on record?
The value was inactive: 27.2%.

How did the Potency turn out when `O=C(C1CCCCC1)N1C[C@@H](O)[C@H](n2cc(-c3ccc(F)cc3)nn2)C[C@@H]1c1ccccc1` was run?
Its Potency is inconclusive [inhibitor, partial curve, poor fit].

How did the Potency turn out when `O=C(Nc1nc2c(s1)CCCC2)c1cc(-c2ccccc2)nc2ccccc12` was run?
Its Potency is inconclusive [inhibitor, partial curve, poor fit].

`Cc1nn(C)c(C(=O)NNC(=S)NCc2ccccc2)c1Cl` was tested. Which “activity change, negative = inhibition” value did it give?
Its value is inactive: 1.89%.

Which Potency does the source give for `O=C(Nc1ccc(NC(=O)c2ccco2)nc1)c1ccccn1` here?
The Potency was inconclusive [inhibitor, partial curve, poor fit].

How did the Potency turn out when `COc1ccc(C(=O)NCCn2cc(SCC(=O)NCc3ccco3)c3ccccc32)cc1` was run?
The Potency was inconclusive [inhibitor, partial curve, poor fit].

`CC1(C)CC(CCN)(Cc2ccccc2Cl)CCO1` (stereo unspecified) was tested. Which Potency did it give?
The Potency was inconclusive [inhibitor, single point].

Which Potency does the source give for `CSc1nc(Cl)c(Cc2ccc(OC(C)C)cc2)c(N(C)C)n1` here?
Its Potency is inconclusive [inhibitor, single point].

How did the Potency turn out when `Cc1onc(-c2c(Cl)cccc2Cl)c1C(=O)N=C(N)N1CCCC1` was run?
The Potency was inconclusive [inhibitor, partial curve, poor fit].

`O=C1NC(Cc2ccc(O)cc2)c2nc3ccc(F)cc3c(=O)n2-c2ncccc21` (stereo unspecified) was tested. Which “activity change, negative = inhibition” value did it give?
The value was inactive: 18.1%.

For `COc1ccc(-n2cc(C(=O)NC(C)c3ccccc3)c3ccccc3c2=O)cc1` (stereo unspecified), which Potency is on record?
Its Potency is inconclusive [inhibitor, single point].

How did the Potency turn out when `N#CCC(=O)Nc1ccc(C(=O)OC(C(=O)Nc2ccc([N+](=O)[O-])cc2Br)c2ccccc2)cc1` (stereo unspecified) was run?
The Potency was inconclusive [inhibitor, single point].

For `O=C(NC1CCCC1)c1ccc(CSc2nc3ccncc3n2Cc2ccc(F)cc2)cc1`, which Potency is on record?
Its Potency is inconclusive [inhibitor, single point].

For `CN(C)CC(CCC(CN(C)C)C(O)(c1ccccc1)c1ccccc1)C(O)(c1ccccc1)c1ccccc1` (stereo unspecified), which Potency is on record?
The Potency was active: 2.82 µM.

For `S=C(NC1CCCCC1)N1CCN(c2ncccn2)CC1`, which “activity change, negative = inhibition” value is on record?
Its value is inactive: -7.4%.

For `N#Cc1nc(-c2ccccc2Cl)oc1N1CCOCC1`, which “activity change, negative = inhibition” value is on record?
Its value is inactive: 177%.

For `CCc1ccc(Nc2ncc3c(n2)CC(C)(C)CC3=O)cc1`, which Potency is on record?
The Potency was inconclusive [inhibitor, single point].

For `CCOC(=O)c1oc2ccc(CNC3CCCCC3)c(Cl)c2c1C`, which Potency is on record?
Its Potency is inconclusive [inhibitor, single point].

`COc1ccccc1C(CC(=O)c1ccccc1)CC(=O)c1ccccc1` was tested. Which Potency did it give?
The Potency was inconclusive [inhibitor, full curve, poor fit].

Which Potency does the source give for `C[C@@H]1CCC(=O)N(CC[C@H](Sc2ccc(Br)cc2)c2ccccc2)CC1` here?
The Potency was inconclusive [inhibitor, partial curve, poor fit].

For `O=C(CCCc1ccccc1)c1ccc2c(c1)OCCO2`, which Potency is on record?
Its Potency is inconclusive [inhibitor, full curve, poor fit].

`CC1CN(C(=O)c2ccc(COc3ccc(C(C)C)cc3)o2)CC(C)O1` (stereo unspecified) was tested. Which Potency did it give?
The Potency was inconclusive [inhibitor, single point].

For `Cc1cc(Cl)ccc1NC(=O)CN1CCC(C(O)(c2ccccc2)c2ccccc2)CC1`, which “activity change, negative = inhibition” value is on record?
Its value is inactive: -0.426%.

`CN(C)S(=O)(=O)c1ccc(C(=O)Nc2c(C(=O)Nc3ccc(F)cc3)oc3ccccc23)cc1` was tested. Which “activity change, negative = inhibition” value did it give?
Its value is inactive: 8.56%.

For `CCc1nn(C(CC)C(=O)NCC(C)c2ccccc2)c(=O)c2cc3occc3n12` (stereo unspecified), which Potency is on record?
Its Potency is inconclusive [inhibitor, partial curve, poor fit].

How did the “activity change, negative = inhibition” value turn out when `COc1ccc(/C=C2\SC(=O)N(CCNC(=O)C3CSC4(C)CCC(=O)N34)C2=O)cc1` (stereo unspecified) was run?
The value was inactive: -10.5%.

For `CN(C)CC1CCC/C(=C\c2ccc(OC(=O)c3ccc(Cl)cc3)cc2)C1=O` (stereo unspecified), which Potency is on record?
Its Potency is inconclusive [inhibitor, partial curve, poor fit].

With `O=C(NC1CCN(Cc2ccccc2)CC1)C1CCN(c2nnc(-n3cccc3)s2)CC1` as the compound, how does the Potency read?
The Potency was inconclusive [inhibitor, partial curve, poor fit].

Which Potency does the source give for `CCN1C(=O)[C@H]2[C@@H](c3ccc(-c4cccc(Cl)c4)c(OC)c3)N3CCC[C@@]3(C(=O)OC)[C@H]2C1=O` here?
The Potency was inconclusive [inhibitor, single point].
